Results published in patent publication US20140193408A1 (Novartis, published 2014).

How the values were obtained:
[1] = molecular target: T1, human SIRPalpha-Fc (R&D systems, UK) (human, UniProt P78324 31-373); assay: SPR (BiaCORE), human SIRPalpha-Fc captured via Protein A, bivalent kinetic fitting model, kd1
T1 construct: Bought fusion protein; also called divalent recombinant SIRPalpha; immobilized human SIRPalpha; not shown: Fc part of the bought SIRPalpha-Fc

[2] = molecular target: T1, human SIRPalpha-Fc (R&D systems, UK); assay: SPR (BiaCORE), human SIRPalpha-Fc captured via Protein A, bivalent kinetic fitting model, KD1
human recombinant TNFα = molecular target: T2, human recombinant TNFα (human, UniProt P01375 part only); assay: DELFIA, TNFα immobilized on microtiter plate, detection with biotinylated anti-human IgG and Streptavidin-Europium
human recombinant TNFα, sequence (P01375 77-233 limits assumed): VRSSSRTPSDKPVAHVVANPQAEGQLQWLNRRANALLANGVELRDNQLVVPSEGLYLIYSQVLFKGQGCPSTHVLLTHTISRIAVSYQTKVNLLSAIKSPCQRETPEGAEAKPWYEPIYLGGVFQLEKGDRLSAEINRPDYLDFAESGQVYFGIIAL
T2 construct: also called TNFalpha; recombinant human TNFalpha

| Binder | koff [1] [s⁻¹] | Kd [2] [nM] | binding result (human recombinant TNFα) |
| --- | --- | --- | --- |
| Example #9 CD47-Fc reference molecule (CD47 ECD fused to IgG1 N297A Fc) (Fc fusion) not shown | 0.109 | 939 |  |
| Example #2 non-extended Fusobody (CD47 C15G-[G4S]2 linker-CH1-IgG1 LALA Fc / CD47 C15G-[G4S]2 linker-CL human kappa) (Fc fusion, Complex of two heterodimers; tetravalent for CD47 region; also called huCD47C15G-human IgG1 LALA-hkappa) heavy: not shown light: not shown |  |  | no binding (tested: 0.01-1 µg/mL) |
